# Laboratory results reported in PubChem BioAssay AID485364 (National Center for Advancing Translational Sciences (NCATS), 2010).
# Several values for one entry are separate records, joined by “and”; a condition that tells them apart may be missing. Equal values may be shown once. Out of some 360,000 compounds screened, about 11,000 (3.1%) were called active. Inconclusive means that the source gave no clear call. Such entries were picked first, then a sample of the others. Calls follow the shape of the dose curve; as a rule, active = well fitted inhibition curve with a large enough effect; inconclusive = small, poorly fitted or top-dose-only effect; inactive = no such curve, though single readings can be large or run the other way. Potencies of inconclusive entries are doubtful fits and often do not repeat.
# Target: Schistosoma mansoni thioredoxin glutathione reductase (TGR) (UniProt Q962Y6)
# Test: qHTS Assay for the Inhibitors of Schistosoma Mansoni Peroxiredoxins; also: nearly all actives have a fitted effect of over 60% in size
# Conditions: purified TGR, DTNB reduction, TNB absorbance 405 nm; activity change, negative = inhibition: at 114 µM (top of the series) unless noted
# Method in brief: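 TGR 20 nM + NADPH 100 uM (dispensed conc.), cpd preinc 15 min RT; start with NADPH (500 uM addition) then DTNB (15 mM addition). Kinetic TNB absorbance, 405 nm filter. Four-parameter Hill fit across titration.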
# % is scaled to controls: 0 for no effect and ±100 for the full control effect; potency is read from the fitted curve at half-maximal effect; tags tell the direction and shape of the fitted curve.
SMILES,Potency,"activity change, negative = inhibition"
N#Cc1cc(-c2ccccc2)nn1-c1ccccc1,active: 0.631 µM,–
OCCCn1c(-c2ccccc2)nc(=S)c2c1CCCC2,"inconclusive: 50.1 µM [inhibitor, partial curve]",–
COC(=O)C(Cc1ccccc1)NC(=S)NC(=O)c1ccccc1 (stereo unspecified),"inconclusive: 50.1 µM [inhibitor, partial curve]",–
Brc1cccc(C2Nc3cccc4cccc(c34)N2)c1,active: 11.2 µM,–
CC(C)C(=O)Nc1cccc(NC(=S)NC(=O)c2ccccc2Cl)c1,"inconclusive: 50.1 µM [inhibitor, partial curve]",–
COc1ccc(N2C(=O)CC(N3CCC(O)(c4cccc(C(F)(F)F)c4)CC3)C2=O)cc1 (stereo unspecified),active: 39.8 µM,–
CC1CCCC(NC(=O)CCCn2c(=S)[nH]c3ccccc3c2=O)C1C (stereo unspecified),–,inactive: 0.157%
NS(=O)(=O)c1cccc(NC(=S)NCc2ccccc2)c1,"inconclusive: 44.7 µM [inhibitor, partial curve]",–
CCOc1ccc(N(CC(=O)NCc2ccc(Cl)cc2)S(=O)(=O)c2c(C)noc2C)cc1,inactive,–
O=C(Cn1cc([N+](=O)[O-])cn1)NCc1ccco1,"inconclusive: 20 µM [inhibitor, full curve]",–
O=C1CN(S(=O)(=O)c2ccc([N+](=O)[O-])cc2)CC(=O)N1,"inconclusive: 56.2 µM [inhibitor, partial curve]",–
Cc1ccc(CN2CCN(Cc3nc4c(s3)CCCC4)CC2CCO)cc1 (stereo unspecified),"inconclusive: 50.1 µM [inhibitor, partial curve]",–
Cc1ncc(CO)c2c1Oc1nc(-c3ccccc3)nc(SCC(=O)Nc3cccc(C(F)(F)F)c3)c1C2,"inconclusive: 35.5 µM [inhibitor, partial curve]",–
Cc1cccc(OCC(=O)NCCCNC(=O)c2cnccn2)c1,–,inactive: -2.79%
CCc1ccc(Nc2nnc(SCC(=O)c3c(N)n(C4CC4)c(=O)[nH]c3=O)s2)cc1,–,inactive: -6.59%
CC(=O)N/C(=C/c1ccc2c(c1)OCO2)C(=O)Nc1ccccc1,–,inactive: -2.75%
COC(=O)c1ccccc1SC1CC(=O)N(c2cccc(C)c2)C1=O (stereo unspecified),active: 50.1 µM,–
Cc1cccc(OCC(=O)Nc2ccc3c(c2)nc(CCNC(=O)c2ccco2)n3C)c1,"inconclusive: 39.8 µM [inhibitor, partial curve]",–
Cc1ccc(-c2noc(C3CCCN(C(=O)c4ccccc4Br)C3)n2)o1 (stereo unspecified),"inconclusive: 44.7 µM [inhibitor, partial curve]",–
CN(C)Cc1c(-c2ccc(Cl)cc2)nc2ccccn12,–,inactive: -12%
CC(=O)N(CN1C(=O)c2ccccc2C1=O)c1cccc(C)c1,–,inactive: 6.13%
O=C1c2ccccc2NC(c2ccccc2)N1Cc1ccco1 (stereo unspecified),"inconclusive: 56.2 µM [inhibitor, partial curve]",–
CN(C)C(=O)CN1CCN(C(=O)CCl)CC1,active: 44.7 µM,–
Cc1ccc(-n2ncc(C(=O)NCC3CCN(C4CCCC4)C3)c2C2CCN(C(=O)OC(C)(C)C)CC2)cc1 (stereo unspecified),"inconclusive: 56.2 µM [inhibitor, partial curve]",–
CC(=O)c1ccc(N2CCN(C(=O)CCCn3c(=O)[nH]c4ccc(Br)cc4c3=O)CC2)cc1,–,inactive: -3.48%
COc1ccccc1N1CCN(C(=O)C2CC=CCC2C(=O)O)CC1 (stereo unspecified),"inconclusive: 89.1 µM [inhibitor, single point]",–

SMILES,Potency,"activity change, negative = inhibition"
CC(C)(C)OC(=O)N1CCC(C(=O)N2CCOCC2)CC1,"inconclusive: 89.1 µM [inhibitor, single point]",–
Cn1c(CNC(=O)Nc2ccccc2)nnc1SCc1ccccc1,–,inactive: 1.96%
Cc1cccc(NC(=S)NNC(=O)c2ccco2)c1,–,inactive: -4.76%
CCN1CCc2c(sc(NC(=O)COc3ccccc3)c2C(=O)OC)C1,–,inactive: 8.37%
COc1ccc(C(=O)/C=C/Nc2c(C)n(C)n(-c3ccccc3)c2=O)c(OC)c1,"inconclusive: 39.8 µM [inhibitor, partial curve]",–
OCCC1CN(Cc2ccc3cc(Cl)ccc3n2)CCN1Cc1ccsc1 (stereo unspecified),active: 35.5 µM,–
COc1ccc(NC(=O)CN(C)C(=O)c2sc3cc(Cl)ccc3c2Cl)cc1,"inconclusive: 39.8 µM [inhibitor, single point]",–
CCc1nnc(NC(=O)c2cc(=O)c3cc(C)c(C)cc3o2)s1,–,inactive: -0.144%
COC(=O)c1ccc(NC(=O)c2c(NCc3ccc(C)o3)sc3c2CCCC3)cc1,"inconclusive: 8.91 µM [inhibitor, partial curve, poor fit]",–
COCCn1c(C)nnc1SCC(=O)NNC(=O)c1ccc(Br)cc1,–,inactive: -9.16%
COc1cc(/C=C/C(=O)c2ccc(Cl)s2)cc(OC)c1O,"inconclusive: 35.5 µM [inhibitor, partial curve]",–
CCN=C1S/C(=C/c2ccc(-c3ccc(Cl)cc3C(=O)O)o2)C(=O)N1CC,"inconclusive: 50.1 µM [inhibitor, partial curve]",–
O=[N+]([O-])c1cccc(S(=O)(=O)NCCCN2CCOCC2)c1,–,inactive: 3.64%
Cc1ccccc1CNC(=O)C1CCN(c2nnc(C)c3c(C)n(-c4ccccc4)nc23)CC1,–,inactive: -1.57%
CC(C)CC(=O)Nc1ccc(C(=O)COC(=O)Cc2n[nH]c(=O)c3ccccc23)cc1,–,inactive: -14.2%
Cc1cc(-c2ccco2)n2c(nc3ccccc32)c1C#N,active: 50.1 µM,–
COCCn1c(SCC(=O)c2ccc3c(c2)OCCO3)nnc1C(C)C,"inconclusive: 89.1 µM [inhibitor, single point]",–
CCCCOc1ccc(-c2nonc2NC(=O)c2ccco2)cc1,–,inactive: -2.52%
C#CCOCCOCCOCCNc1nc(N2CCN(C(=O)[C@H](CCCCN)n3cc(C(N)CC(C)C)nn3)CC2)nc(N2CCN(C(=O)[C@H](CCC(=O)O)n3cc(C(N)[C@H](C)CC)nn3)CC2)n1 (stereo partly specified),"inconclusive: 3.55 µM [inhibitor, full curve]",–
Cc1c(NC(=O)CN(c2ccc(F)cc2)S(=O)(=O)c2ccccc2)c(=O)n(-c2ccccc2)n1C,active: 10 µM,–
O=C1/C(=C/c2ccccn2)COc2ccccc21,"inconclusive: 28.2 µM [inhibitor, full curve]",–
O=C(NCC(c1ccco1)N1CCCC1)c1ccc(Cl)c(S(=O)(=O)N2CCc3ccccc32)c1 (stereo unspecified),"inconclusive: 22.4 µM [inhibitor, full curve]",–
N#Cc1ccccc1NC(=S)NC(=O)c1cccnc1,"inconclusive: 3.98 µM [inhibitor, full curve]",–
CN(O)/C=C1\C(=O)Nc2ccccc21,–,inactive: 1.2%
CCN(CC)c1ccc(/C=N/N2C(=O)c3ccccc3C2=O)cc1,–,inactive: 6.47%
COc1ccccc1-c1nc(-c2ccc(Br)o2)no1,"inactive and inconclusive: 39.8 µM [inhibitor, single point]",–

SMILES,Potency,"activity change, negative = inhibition"
CC(C)(C)C(=O)COC(=O)c1cccc(NC(=O)c2ccco2)c1,–,inactive: 15%
O=C(CSc1nnc(-c2cnccn2)n1Cc1ccco1)c1ccc(Cl)cc1,active: 10 µM,–
CC(=O)c1cccc(Nc2nc(N3CCOCC3)nc(N3CCOCC3)n2)c1,–,inactive: 0.24%
CC(=O)Nc1ccc(C)c(NC(=S)Nc2ccc(F)cc2)c1,"inconclusive: 44.7 µM [inhibitor, partial curve]",–
Nn1c(SCC(=O)Nc2ccccc2F)nc2ccccc2c1=O,"inconclusive: 3.55 µM [inhibitor, single point]",–
Cn1c(SCC(=O)N2CCCC2)nc2cccnc21,active: 39.8 µM,–
CCOc1ccccc1NC(=O)C1CCN(S(=O)(=O)c2c(C)noc2/C=C/c2ccc(C)cc2)CC1,–,inactive: 5.68%
O=C(CC1N=C2c3ccccc3N=C(SCc3ccccc3Cl)N2C1=O)NCc1ccco1 (stereo unspecified),"inconclusive: 20 µM [inhibitor, full curve]",–
CC1=NNC(=O)C1C(c1ccccc1)C(C#N)C#N (stereo unspecified),"inconclusive: 11.2 µM [inhibitor, partial curve]",–
C/C(CCCO)=N/Nc1ccc([N+](=O)[O-])cc1[N+](=O)[O-],"inconclusive: 50.1 µM [inhibitor, partial curve]",–
CN(C)c1ccc(C#Cc2ccc3cc(CCCO)oc(=O)c3c2)cc1,"inconclusive: 28.2 µM [inhibitor, partial curve]",–
CCCNC(=O)N1CCN(Cc2ccco2)CC1,"inconclusive: 39.8 µM [inhibitor, partial curve]",–
Cc1nnc(SCC(=O)Nc2cc(-c3cc(C)c(C)cc3C)nn2-c2ccccc2)s1,–,inactive: -5.16%
CCC(=O)NCCc1c[nH]c2ccccc12,"inconclusive: 25.1 µM [inhibitor, full curve]",–
O=C(CC(Nc1ccccc1)C(=O)O)c1ccccc1 (stereo unspecified),active: 2.24 µM,–
COc1ccc(-c2nnc(SCC(=O)NCc3ccco3)n2C)cc1,active: 44.7 µM,–
Cc1ccc(CN(C)C(=O)c2cc(Br)c(Br)s2)o1,active: 50.1 µM,–
COc1ccccc1CCC(=O)Nc1ccc2c(c1)CN(Cc1ccc(C)o1)CC2,"inconclusive: 44.7 µM [inhibitor, partial curve]",–
COCCn1c(SCC(=O)c2cc(C)ccc2C)nc2cc(C(=O)NC3CCCC3)ccc2c1=O,–,inactive: -1.98%
N#C/C(=C/c1ccc(N2CCOCC2)o1)c1ccc(Br)cc1,active: 2 µM,–
C=CCN1C(=O)C2(c3ccccc31)C1CCCC=C1C(C#N)=C(N)C2(C#N)C#N (stereo unspecified),"inconclusive: 39.8 µM [inhibitor, partial curve]",–
COC(=O)c1ccccc1NC(=O)N1CSC[C@H]1C(=O)OC,active: 28.2 µM,–
CC(=O)Nc1ccc(S(=O)(=O)NCCc2ccccc2)cc1,–,inactive: 5.44%
Cc1cc(NC(=S)Nc2cccc3ccccc23)n[nH]1,"inconclusive: 5.01 µM [inhibitor, full curve]",–
